Sequences with one replicate were seen in a single cluster, so their values are uncertain.
What follows are sequences tested on ATP (assay: switch fluorescence ratio, 500 uM ATP over buffer (Cy3 cluster intensity, sum of 5 cycles each) (fold (ratio)); higher = stronger signal-on switching upon ATP binding; sequences stand for … in TCGTCGGCAGCGTCAGATGTGTATAAGAGACAGTTTTTTTTTTTTTTTTTTTTTTTTT…TC). Conditions: aptamer strand: ATP DNA aptamer (quencher-CACCTGGGGGAGTATTGCGGAGGAAGG + anchor), 100 nM annealed; ATP concentration: 500 uM; one replicate.
Procedure, shortened: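 Exposure to 500 uM ATP lasted 15 min at 22 °C before imaging, and a selection-buffer image was taken beforehand, for Cy3-labelled switching-strand clusters on a modified Illumina MiSeq flow-cell annealed to 100 nM quencher-labelled ATP aptamer. Five buffer/ATP cycles were run with NaOH stripping and re-annealing between them. The fluorescence ratio per cluster is summed target-cycle over summed buffer-cycle Cy3 intensity, averaged per switch-domain sequence. Clusters outside 100-1000 RFU were excluded.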
For TGATCCCGCT, the switch fluorescence ratio was 1.01. In the case of TGATCCGGG, the switch fluorescence ratio is reported as 1.01. For TGATCGAGAG, the switch fluorescence ratio was 0.971. TGATCGCAGG was tested, and the switch fluorescence ratio was 1.07. With TGATCGTAGT the switch fluorescence ratio was 0.984. Sequence TGATCTTAAG has a switch fluorescence ratio of 0.98. TGATGACTAA was tested, and the switch fluorescence ratio was 0.995. TGATGATTAA showed a switch fluorescence ratio of 0.967. TGATGCAGA gave a switch fluorescence ratio of 1.07. TGATGCGCTT was tested, and the switch fluorescence ratio was 0.988. TGATGCGGG was tested, and the switch fluorescence ratio was 0.967. With TGATGCTAA the switch fluorescence ratio was 1.04. TGATGCTACA showed a switch fluorescence ratio of 0.989. TGATGCTATT was tested, and the switch fluorescence ratio was 0.986. TGATGGCGCC showed a switch fluorescence ratio of 1.04. TGATGGCTAC was tested, and the switch fluorescence ratio was 1.28. Sequence TGATGGGCCG has a switch fluorescence ratio of 0.948. In the case of TGATGGTAG, the switch fluorescence ratio is reported as 0.991. TGATGTGCTC was tested, and the switch fluorescence ratio was 1.01. Work on TGATGTTGTT yielded a switch fluorescence ratio of 0.981. TGATGTTTA was tested, and the switch fluorescence ratio was 0.929. TGATTACAGA gave a switch fluorescence ratio of 0.983. In the case of TGATTAGGAT, the switch fluorescence ratio is reported as 0.94. TGATTATAGT was tested, and the switch fluorescence ratio was 1.03. Work on TGATTATCAG yielded a switch fluorescence ratio of 0.995. TGATTCAGG gave a switch fluorescence ratio of 1.02. TGATTCCCGG was tested, and the switch fluorescence ratio was 0.984. TGATTGGAAA showed a switch fluorescence ratio of 0.938. TGATTTAGT gave a switch fluorescence ratio of 1.02. Work on TGATTTTCAG yielded a switch fluorescence ratio of 0.935. TGCAAAGGAT showed a switch fluorescence ratio of 1.01. TGCAACACGG showed a switch fluorescence ratio of 1.18. TGCAACTCGG was tested, and the switch fluorescence ratio was 1.03. Work on TGCAACTTAC yielded a switch fluorescence ratio of 1.75. For TGCAAGCTAC, the switch fluorescence ratio was 2.36. With TGCAAGCTCT the switch fluorescence ratio was 1.08. For TGCAAGTAGC, the switch fluorescence ratio was 1.12. TGCAATAGCG showed a switch fluorescence ratio of 1.1. Work on TGCAATATGA yielded a switch fluorescence ratio of 3.98. TGCAATGTCT gave a switch fluorescence ratio of 1.06. Sequence TGCACCTATT has a switch fluorescence ratio of 1.05. With TGCACGTGTG the switch fluorescence ratio was 0.957. With TGCACTAGAT the switch fluorescence ratio was 1.04. TGCAGAACT showed a switch fluorescence ratio of 1.06. With TGCAGACCTT the switch fluorescence ratio was 1.17. With TGCAGAGTGG the switch fluorescence ratio was 1.05. TGCAGGAGCA showed a switch fluorescence ratio of 1.01. In the case of TGCAGGGCCC, the switch fluorescence ratio is reported as 1.04. TGCAGTAGTA was tested, and the switch fluorescence ratio was 0.955. TGCAGTGAAA gave a switch fluorescence ratio of 0.966. TGCAGTGTGT showed a switch fluorescence ratio of 1.01. For TGCATAAATG, the switch fluorescence ratio was 1.03. With TGCATATTCG the switch fluorescence ratio was 1.02. Sequence TGCATGGATA has a switch fluorescence ratio of 1.01. TGCATGTGTA was tested, and the switch fluorescence ratio was 1.05. TGCATTACAT showed a switch fluorescence ratio of 1.06. Sequence TGCATTACCT has a switch fluorescence ratio of 1.23. TGCCAACCTT was tested, and the switch fluorescence ratio was 1.01. Work on TGCCAAGTCG yielded a switch fluorescence ratio of 0.906. Work on TGCCAAGTGC yielded a switch fluorescence ratio of 1.03. With TGCCACCCGG the switch fluorescence ratio was 1.02. Sequence TGCCACCGAG has a switch fluorescence ratio of 1.08. Work on TGCCAGTTGG yielded a switch fluorescence ratio of 1.03. In the case of TGCCATCACG, the switch fluorescence ratio is reported as 1.01. TGCCCCAAGG gave a switch fluorescence ratio of 1.04. With TGCCCCAGGC the switch fluorescence ratio was 1.04. In the case of TGCCCCGGCT, the switch fluorescence ratio is reported as 0.994. TGCCCCTGG was tested, and the switch fluorescence ratio was 2.47. Sequence TGCCCGAGGC has a switch fluorescence ratio of 1.09. TGCCCTAGAA gave a switch fluorescence ratio of 1.01. TGCCGAAATG was tested, and the switch fluorescence ratio was 1.04. TGCCGCATTC was tested, and the switch fluorescence ratio was 1.51. TGCCGGCTTT was tested, and the switch fluorescence ratio was 1.03. For TGCCGGTCAC, the switch fluorescence ratio was 1.09. With TGCCGTCCGA the switch fluorescence ratio was 1.01. TGCCGTCTG gave a switch fluorescence ratio of 1.02. Sequence TGCCTACACG has a switch fluorescence ratio of 1.08. Sequence TGCCTAGA has a switch fluorescence ratio of 1.01. With TGCCTATGCG the switch fluorescence ratio was 0.991. With TGCCTCAGCA the switch fluorescence ratio was 1.21. In the case of TGCCTCCTAA, the switch fluorescence ratio is reported as 1.34. With TGCCTCGGTG the switch fluorescence ratio was 1.03. For TGCCTCTAAC, the switch fluorescence ratio was 0.973. Work on TGCCTTACAA yielded a switch fluorescence ratio of 0.963. For TGCCTTTAAT, the switch fluorescence ratio was 1.03. For TGCGAATGG, the switch fluorescence ratio was 0.966. Work on TGCGACAAAC yielded a switch fluorescence ratio of 1.37. TGCGACGGCG gave a switch fluorescence ratio of 1.01. TGCGACTTCT was tested, and the switch fluorescence ratio was 1.04. TGCGAGAAGC was tested, and the switch fluorescence ratio was 0.989. Work on TGCGAGACGA yielded a switch fluorescence ratio of 1.14. Sequence TGCGAGATAT has a switch fluorescence ratio of 1.03. In the case of TGCGAGGGAA, the switch fluorescence ratio is reported as 1.16. Work on TGCGAGGTA yielded a switch fluorescence ratio of 1.05. Sequence TGCGAGTTGG has a switch fluorescence ratio of 1. For TGCGATCCA, the switch fluorescence ratio was 1.16. TGCGATCTTC showed a switch fluorescence ratio of 1.02. With TGCGATGGTG the switch fluorescence ratio was 1.02. In the case of TGCGCCTGA, the switch fluorescence ratio is reported as 1.02. With TGCGCGTTCC the switch fluorescence ratio was 1.14. Sequence TGCGCTAAGG has a switch fluorescence ratio of 0.987. For TGCGGAACG, the switch fluorescence ratio was 1.03. TGCGGATAAA gave a switch fluorescence ratio of 1.02. With TGCGGCATGT the switch fluorescence ratio was 0.974. Sequence TGCGGGAGGT has a switch fluorescence ratio of 1.03. With TGCGGGGAAG the switch fluorescence ratio was 1.02. Sequence TGCGGGGATG has a switch fluorescence ratio of 1.08. TGCGGGGTC gave a switch fluorescence ratio of 0.892. TGCGGTCGT was tested, and the switch fluorescence ratio was 0.987. With TGCGTACTAG the switch fluorescence ratio was 1. Sequence TGCGTAGTCA has a switch fluorescence ratio of 0.971. Sequence TGCGTCGAG has a switch fluorescence ratio of 0.996. Sequence TGCGTTATT has a switch fluorescence ratio of 0.959. Work on TGCGTTCGAT yielded a switch fluorescence ratio of 1.02. TGCGTTTAA showed a switch fluorescence ratio of 1.02. TGCTAATCGT showed a switch fluorescence ratio of 1. With TGCTAATGTT the switch fluorescence ratio was 1. Work on TGCTACCCCC yielded a switch fluorescence ratio of 1.81. In the case of TGCTACTCTC, the switch fluorescence ratio is reported as 1.26. In the case of TGCTACTGCG, the switch fluorescence ratio is reported as 1.01. With TGCTACTTT the switch fluorescence ratio was 0.987. TGCTAGTTA gave a switch fluorescence ratio of 1.01. Sequence TGCTATAGGA has a switch fluorescence ratio of 0.987. Work on TGCTATTTAG yielded a switch fluorescence ratio of 1.04. In the case of TGCTATTTTC, the switch fluorescence ratio is reported as 1.07. With TGCTCAAACG the switch fluorescence ratio was 1.03. TGCTCACAGT gave a switch fluorescence ratio of 1. For TGCTCACCAC, the switch fluorescence ratio was 1.13. In the case of TGCTCCAAGA, the switch fluorescence ratio is reported as 3. TGCTCGATTG showed a switch fluorescence ratio of 0.999. TGCTCGGATT gave a switch fluorescence ratio of 0.972. Sequence TGCTCGGGTA has a switch fluorescence ratio of 1.01. Work on TGCTCTAGGG yielded a switch fluorescence ratio of 1.01. TGCTCTCTTC showed a switch fluorescence ratio of 0.985. In the case of TGCTCTTAGC, the switch fluorescence ratio is reported as 0.983. With TGCTCTTATA the switch fluorescence ratio was 0.988. Work on TGCTGAATAG yielded a switch fluorescence ratio of 1.03. TGCTGACCGT showed a switch fluorescence ratio of 1.01. TGCTGGAGTA gave a switch fluorescence ratio of 1. TGCTGGCCTA was tested, and the switch fluorescence ratio was 1.01. Work on TGCTGGTGTC yielded a switch fluorescence ratio of 0.941. Sequence TGCTTCGATA has a switch fluorescence ratio of 0.994. For TGCTTCGTTT, the switch fluorescence ratio was 0.958. In the case of TGCTTGGGAG, the switch fluorescence ratio is reported as 0.976. In the case of TGCTTTGGAG, the switch fluorescence ratio is reported as 0.992. TGGAACAGGT was tested, and the switch fluorescence ratio was 0.985. Work on TGGAAGACCC yielded a switch fluorescence ratio of 1.02. TGGAAGATTC was tested, and the switch fluorescence ratio was 1.05. In the case of TGGAAGCGCG, the switch fluorescence ratio is reported as 1.04. TGGAATAGGC showed a switch fluorescence ratio of 1.03. TGGACACATA was tested, and the switch fluorescence ratio was 1.2. Sequence TGGACATTGA has a switch fluorescence ratio of 0.991. Work on TGGACGACGA yielded a switch fluorescence ratio of 0.977. For TGGACGTATT, the switch fluorescence ratio was 1.03. With TGGAGCAAAT the switch fluorescence ratio was 5. Sequence TGGAGGCGCT has a switch fluorescence ratio of 0.976. Work on TGGAGGTATT yielded a switch fluorescence ratio of 1.23. In the case of TGGATAAAGG, the switch fluorescence ratio is reported as 1.06. With TGGATATGTT the switch fluorescence ratio was 0.986. TGGATGCAAG gave a switch fluorescence ratio of 1.01. Sequence TGGATGGCAG has a switch fluorescence ratio of 0.96. TGGATGTGCC showed a switch fluorescence ratio of 0.911. TGGATTTCAC gave a switch fluorescence ratio of 1.05. TGGCAACGAT was tested, and the switch fluorescence ratio was 0.976. Sequence TGGCACATAC has a switch fluorescence ratio of 4.2. For TGGCACGGAC, the switch fluorescence ratio was 1.37. Work on TGGCAGAGTG yielded a switch fluorescence ratio of 1. TGGCAGATAG was tested, and the switch fluorescence ratio was 1.02. TGGCATACCT gave a switch fluorescence ratio of 1.17. In the case of TGGCATTCCT, the switch fluorescence ratio is reported as 1.11. With TGGCCAAGCG the switch fluorescence ratio was 1.05. Work on TGGCCACCGT yielded a switch fluorescence ratio of 0.999. In the case of TGGCCATAAG, the switch fluorescence ratio is reported as 1.04. Sequence TGGCCTCACG has a switch fluorescence ratio of 1.03. Work on TGGCCTGAGG yielded a switch fluorescence ratio of 0.988. With TGGCGATTCA the switch fluorescence ratio was 0.957. For TGGCGCAGGC, the switch fluorescence ratio was 1.14. Work on TGGCGCCTGC yielded a switch fluorescence ratio of 0.974. TGGCGCGATA was tested, and the switch fluorescence ratio was 1.02. Sequence TGGCGGATTG has a switch fluorescence ratio of 0.99. For TGGCGGCGT, the switch fluorescence ratio was 1.01. TGGCGTTCTG showed a switch fluorescence ratio of 0.983. TGGCGTTGCG was tested, and the switch fluorescence ratio was 0.984. TGGCGTTGGA showed a switch fluorescence ratio of 1.02. TGGCTAGTCG showed a switch fluorescence ratio of 0.971. For TGGCTATTCT, the switch fluorescence ratio was 1.03. With TGGCTCAACT the switch fluorescence ratio was 1. Work on TGGCTCCACG yielded a switch fluorescence ratio of 1.05. TGGCTCGAGA showed a switch fluorescence ratio of 0.997. In the case of TGGCTGAACT, the switch fluorescence ratio is reported as 0.97. TGGCTGCTGC was tested, and the switch fluorescence ratio was 0.998. Work on TGGCTGGACT yielded a switch fluorescence ratio of 1.05. For TGGCTTTTG, the switch fluorescence ratio was 0.967. TGGGAATGTC gave a switch fluorescence ratio of 1.11. Sequence TGGGACTGAT has a switch fluorescence ratio of 1.02. Work on TGGGACTGG yielded a switch fluorescence ratio of 1.02. Sequence TGGGAGAACG has a switch fluorescence ratio of 0.972. With TGGGAGGCCG the switch fluorescence ratio was 1.05. Work on TGGGAGTTGC yielded a switch fluorescence ratio of 1.04. For TGGGATAACA, the switch fluorescence ratio was 0.996. Sequence TGGGCACGGG has a switch fluorescence ratio of 1.02.

— the supplement of paper PMC10126150
